Experimental data: the RNAGym collection of RNA variant scans (doi:10.1073/pnas.2313332121)
This sample is rich in variants without activity.

B1: TPR 5TU (parent)
chain: GGAUCUUCUCGAUCUAACAAAAAAGACAAAUCUGCCACAAAGCUUGAGAGCAUCUUCGGAUGCAGAGGCGGCAGCCUUCGGUGGCGCGAUAGCGCCAACGUUCUCAACUAUGACACGCAAAACGCGUGCUCCGUUGAAUGGAGUUUAUCAUG

Variants of: B1
Assay: polymerase ribozyme fitness, log enrichment relative to wild type (log ratio); higher = more active; in vitro selection for triplet polymerase activity
Summary of the method: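 One round of in vitro selection, in triplicate, was applied to PCR-built, transcribed mutant libraries of each subunit of a heterodimeric triplet polymerase ribozyme. The steps were annealing with a biotinylated primer, partner subunit and triplets, incubation frozen at −7 °C, gel excision of extended constructs, streptavidin-bead capture and RT-PCR. Fitness is the logarithm, base 2, of genotype enrichment over wild-type enrichment from inverse-variance-weighted replicate averages of Illumina-sequenced inputs and outputs, keeping genotypes with ≥10 input reads and ≥1 read per output.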
With GGAUCUUCUCGAUCUAACAAGAAAGACAAAUCUGCCACAAAGCUUGAGAUCAUCUCCGGAUGCAGAGGCGGCAGCCUUCGGUGGCGCGAUAACGCCAACGUUCUCAACUAUGACACGCAAAACGCGUGCUACGUUGAAUGGAGUUUAUCAUG the “polymerase ribozyme fitness (log ratio)” value was no more than -4.2.
With GGAUCUUCUCGAUCUAACAAGAAAGACAAAUCUGCCACAAAGCUUGAGAGCAUCUUCAGAUGCAGAGGCGGCAGCCUUCGGUGGCGCGAUAGCGCCAACGUUCUCAACUAUGACACGCAAAUCGCGUGCUCCGUUGAAUGGAGUGUAUCAUG the “polymerase ribozyme fitness (log ratio)” value was 0.687.
With GGAUCUUCUCGAUCUAACAAGAAAGACAAAUCUGCCACAAAGCUUGAGAGCAUCUUCGCAUGCAGAGGCGGCAGCCGUCGGUGGCGCGAUAGCGCCAACGUUCUCAACUAUGACACGCAAAACGCGUGCUCCGUUGAAUGGAGUUUAUCAUG the “polymerase ribozyme fitness (log ratio)” value was no more than -4.2.
With GGAUCUUCUCGAUCUAACAAGAAAGACAAAUCUGCCACAAAGCUUGAGAGCAUCUUCGCAUGCAGAGGCGGCAGCCGUCGGUGGCGCGUUAGCGCCAACGUUCUCAACUAUGACACGCAAAGCGCGUGCUCCGUGGAAUGGAGUUUAUCAUG the “polymerase ribozyme fitness (log ratio)” value was no more than -4.2.
In the case of GGAUCUUCUCGAUCUAACAAGAAAGACAAAUCUGCCACAAAGCUUGAGAGCAUCUUCGGAUACUGAGGCGGCAGCCUUCGGUGGCGCGAUAGCGCCAACGUUCUCAACUAUGACAGGCAAAACGCGUGCUCCGUUGAAUGGAGUUUAUCAUG, the “polymerase ribozyme fitness (log ratio)” value is reported as no more than -4.2.
For GGAUCUUCUCGAUCUAACAAGAAAGACAAAUCUGCCACAAAGCUUGAGAGCAUCUUCGGAUCCAGAGGCGGCAGCCUUCGGUGGAGCGAUAGCGCCAAGGUUCUCAACUAUGACACGCAAAACGCGUGCUCCGUUGAAUGGAGUUUAUCAGG, the “polymerase ribozyme fitness (log ratio)” value was no more than -4.2.
For GGAUCUUCUCGAUCUAACAAGAAAGACAAAUCUGCCACAAAGCUUGAGAGCAUCUUCGGAUGCAGAGUCGGCAGCCUUCGGUGGCGUGAUAGCGCCAACGUUCUGAACUACGACACGCAAAACGCGUGCUCCGUUGAAUGGAGUUUAUCAUG, the “polymerase ribozyme fitness (log ratio)” value was no more than -4.2.
For GGAUCUUCUCGAUCUAACAAGAAAGACAAAUCUGCCACAAAGCUUGAGAGCAUCUUCGGAUGCAGAGGCGGCAGCCUUCUGUGGCGCGAUAGCGCCAACGUUGUCAACUAUGACACGCAAAACGCGUGCUCCGUUGAAUGGAGUAUAUGAUG, the “polymerase ribozyme fitness (log ratio)” value was no more than -4.2.
With GGAUCUUCUCGAUCUAACAAGAAAGACAAAUCUGCCACAAAGCUUGAGAGCAUCUUCGGAUGCAGAGGCGGCAGCCUUCGGUCGCGCGACAGCGCCAACGUUCUCAACUAUGACACGCAAAACGCGUGCUCCGUUGAAUGGAGUUAAUCCUG the “polymerase ribozyme fitness (log ratio)” value was no more than -4.2.
With GGAUCUUCUCGAUCUAACAAGAAAGACAAAUCUGCCACAAAGCUUGAGAGCAUCUUCGGAUGCAGAGGCGGCAGCCUUCGGUGCCGCGAUAGCGCCAACGUUCUCAACUAUGUCACGCAAAACGCGUGCUCCGUUGAAUGGAGUUUAUCAUG the “polymerase ribozyme fitness (log ratio)” value was -4.09.
With GGAUCUUCUCGAUCUAACAAGAAAGACAAAUCUGCCACAAAGCUUGAGAGCAUCUUCGGAUGCAGAGGCGGCAGCCUUCGGUGGCGCUAUAGCGCCAACGUUCUCAACUAUGACACGCAAAACGCGUGCUCCGUUGAAUGGAGUUUAUCAUG the “polymerase ribozyme fitness (log ratio)” value was no more than -4.2.
In the case of GGAUCUUCUCGAUCUAACAAGAAAGACAAAUCUGCCACAAAGCUUGAGAGCAUCUUCGGAUGCAGAGGCGGCAGCCUUCGGUGGCGCGAUACCGACAACGUUCUCAACUAUGACACGCAAAACGCGUGAGCCGUUGAAUGGAGUUUAUCAUG, the “polymerase ribozyme fitness (log ratio)” value is reported as no more than -4.2.
In the case of GGAUCUUCUCGAUCUAACAAGAAAGACAAAUCUGCCACAAAGCUUGAGAGCAUCUUCGGAUGCAGAGGCGGCAGCCUUCGGUGGCGCGAUAGCGCCAACGUUCUCAACUAUGACACGCAAAACGCGUGCUCCGUUGAAUGAAGUUUAUCAUG, the “polymerase ribozyme fitness (log ratio)” value is reported as 1.12.
In the case of GGAUCUUCUCGAUCUAACAAGAAAGACAAAGCUGCCACAAAGCUUGAGCGCAUCUUCGGAUGCAGAGGCGGCAGCCUUUGGUGGCUCGAUAGCGCCAACGUUCUCAACUAUGACACGCAAAACGCGUGCUCCGUUGAAUGGAGUUUAUCGUG, the “polymerase ribozyme fitness (log ratio)” value is reported as no more than -4.2.
For GGAUCUUCUCGAUCUAACAAGAAAGACAAAGCUGCCACAAAGCUUGAGAGCUUCUUCGGAUGCAAACGCGGCAGCCUUCGGUGGCGAGAUAGCGCCAAAGUUCUCAACUAUGACACGCAAAACGCGUGCUCCGUUGAAUUGAUUUUAUCAUG, the “polymerase ribozyme fitness (log ratio)” value was no more than -4.2.
With GGAUCUUCUCGAUCUAACAAGAAAGACAAAUCGGCCACAAAGCAUGAGAGCAUCUUCGAUUGCAGAGGCGGCAGCCUUCGGUGACGGGAAAGCGCCAACGUUCUCAACUAGGACACGCAAAACGCGUGCUCCGUUUAAUGGAGUUUAUCAUG the “polymerase ribozyme fitness (log ratio)” value was no more than -4.2.
With GGAUCUUCUCGAUCUAACAAGAAAGACAAAUCUGCCACAAAGCUAGAGAGCAUCUUCGGAUGCAGAGGCGGCAGCCUUUGGAGGUGCGUUAGCGCCAACGUUCUCAACUAUGACACGCAAAACGCGUGCUCCGUUGAAUUGAGUUUAUCAUG the “polymerase ribozyme fitness (log ratio)” value was no more than -4.2.
For GGAUCUUCUCGAUCUAACAAGAAAGACAAAUCUGCCACAAAGCUAGACAGGAUCUUUGGAUGCAGAGGCGGCAGCCUUCGGUGGCGCGAUAGCGCCAACGUUCUCAACUUUGACAUGCAAAACGCGUGCUCCGUUGAAUGGAGCUUAUCAUG, the “polymerase ribozyme fitness (log ratio)” value was no more than -4.2.
In the case of GGAUCUUCUCGAUCUAACAAGAAAGACAAAUCUGCCACAAAGCUUGAGAGCAUCGGCGGAGGCAGAGGCGGCAGCCAUCGGUGGCGCGAUAGCUCCAAGGUUCUCAACUAUGACACGCAAAACGCGUGCUCCGUUGAAUGGAGUUUAUCAUG, the “polymerase ribozyme fitness (log ratio)” value is reported as no more than -4.2.
